According to PubChem BioAssay AID1832 (Broad Institute, 2009):
Hit rate of the full screen: of about 300,000 compounds, about 1,100 (0.37%) were called active. Inconclusive results, whose numbers are uncertain, are shown with a selection of clear calls.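 How the source made its calls: active means inhibition past about -25% in most replicates, and total fluorescence under double the plate's negative control median (limit read from the data); inconclusive means replicates evenly split on the limit, or fluorescence at least double controls; inactive means too little inhibition in most replicates.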

Biological target: Zinc finger protein mex-5 (Caenorhabditis elegans) (UniProt Q9XUB2)
Chain of UniProt Q9XUB2 (Q9XUB2 whole entry, looked up): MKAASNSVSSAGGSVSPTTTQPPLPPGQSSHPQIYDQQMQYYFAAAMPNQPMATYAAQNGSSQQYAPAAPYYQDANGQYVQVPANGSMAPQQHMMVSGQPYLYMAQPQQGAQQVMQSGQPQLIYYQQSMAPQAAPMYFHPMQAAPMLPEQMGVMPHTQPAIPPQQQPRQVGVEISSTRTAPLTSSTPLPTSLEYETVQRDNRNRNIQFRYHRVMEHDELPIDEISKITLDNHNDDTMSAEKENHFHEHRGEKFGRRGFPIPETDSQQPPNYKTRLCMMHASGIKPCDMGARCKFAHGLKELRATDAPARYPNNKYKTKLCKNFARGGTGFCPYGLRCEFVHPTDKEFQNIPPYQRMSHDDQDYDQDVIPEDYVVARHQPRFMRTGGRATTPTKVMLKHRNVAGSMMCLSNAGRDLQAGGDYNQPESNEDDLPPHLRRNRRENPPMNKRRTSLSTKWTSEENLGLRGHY
Test: MEX-5 zinc finger RNA-binding disruptors – biochemical, C. elegans, fluorescence polarization, MLPCN library, primary screen (AID 1832);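 further: 0% = DMSO and -100% = 5 µM competing unlabeled TCR2 RNA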
Settings: MEX-5/FITC-TCR2 RNA binding, at 10 µM, stronger effect = lower value

Q: `Cc1cc(Cl)ccc1OCC(=O)NCC(=O)N/N=C/c1ccco1` was tested. Which activity score (negative = inhibition of binding) did it give?
A: inactive: 0.393%

Q: Which activity score (negative = inhibition of binding) does the source give for `CCOC(=O)/C(=C/C1=CC(=C/N(C)C)/C(=O)O1)C(C)=O` here?
A: inconclusive: 68.6% [fluorescent]

Q: With `Cc1c(Cl)cccc1NC(=O)CCNC(=O)N1CC(=O)Nc2ccccc21` as the compound, how does the activity score (negative = inhibition of binding) read?
A: inactive: -0.759%

Q: Which activity score (negative = inhibition of binding) does the source give for `CC(O)(CS(=O)(=O)Cc1ccccc1)c1ccccc1Cl` (configuration not stated) here?
A: inactive: 0.658%

Q: Which activity score (negative = inhibition of binding) does the source give for `CSC1=NSC2=NC(=O)/C(=C/c3coc4ccc(O)cc4c3=O)C(=N)N12` here?
A: inconclusive: -80.8% [fluorescent]

Q: For `COc1ccccc1N1C(=O)C2C(C(=O)c3ccccc3)=NN(c3ccc(C)cc3)C2C1=O` (configuration not stated), which activity score (negative = inhibition of binding) is on record?
A: inconclusive: -22.7%

Q: `COc1ccc(CC(=O)NNC2=Nc3cccc4cccc2c34)cc1OC` was tested. Which activity score (negative = inhibition of binding) did it give?
A: inconclusive: -109% [fluorescent]

Q: `CC(C)N1CC=C2C(C#N)=C(N)C(C#N)(C#N)C(c3ccccc3)C2C1` (configuration not stated) was tested. Which activity score (negative = inhibition of binding) did it give?
A: inconclusive: -88.1% [fluorescent]

Q: Which activity score (negative = inhibition of binding) does the source give for `COc1ccccc1C1C(C(C)=O)=C(C)N=c2s/c(=C\c3cc(OC)c(OC)c(OC)c3)c(=O)n21` (configuration not stated) here?
A: inconclusive: -16.8%

Q: `CCC(Oc1ccccc1)C(=O)Nc1ccccn1` (configuration not stated) was tested. Which activity score (negative = inhibition of binding) did it give?
A: active: -34.6%

Q: For `Cc1cc(C)c2c3c(sc2n1)C(c1ccccc1)C(C#N)=C(N)O3` (configuration not stated), which activity score (negative = inhibition of binding) is on record?
A: inconclusive: -24.9%

Q: Which activity score (negative = inhibition of binding) does the source give for `O=C(NCCC1=CCCCC1)C1CCC(=O)N(Cc2cccc(C(F)(F)F)c2)C1` (configuration not stated) here?
A: inactive: -1.05%

Q: For `Cc1ccc(-n2ncc3c(NNC(=O)c4ccco4)ncnc32)cc1C`, which activity score (negative = inhibition of binding) is on record?
A: inconclusive: -21.9%

Q: With `CCn1nc([N+](=O)[O-])c(C(C#N)c2nc3ccccc3n2C)c(Cl)c1=O` (configuration not stated) as the compound, how does the activity score (negative = inhibition of binding) read?
A: inactive: -8.17%

Q: `c1coc(-c2nnc(-c3ccco3)nn2)c1` was tested. Which activity score (negative = inhibition of binding) did it give?
A: active: -58.9%

Q: How did the activity score (negative = inhibition of binding) turn out when `COC(=O)Cn1cc(/C=C/c2cc[n+](C)cc2)c2ccccc21` was run?
A: inconclusive: 17.9% [fluorescent]

Q: How did the activity score (negative = inhibition of binding) turn out when `COc1cc(C(CC(=O)N2CCCC2)c2c(OC)cc(OC)c3ccc(=O)oc23)cc(OC)c1OC` (configuration not stated) was run?
A: active: -38.6%

Q: Which activity score (negative = inhibition of binding) does the source give for `COc1ccc(NC(=O)C2Cc3ccccc3CN2C(=O)c2ccccc2)cn1` (configuration not stated) here?
A: active: -38%

Q: `Cc1[nH]c2ccccc2c1/C=N/NC(=S)NC(C)C` was tested. Which activity score (negative = inhibition of binding) did it give?
A: active: -26.2%

Q: With `COc1cc2c3nnc(-c4ccc(F)cc4)c-3cn(Cc3ccc(C)cc3)c2cc1OC` as the compound, how does the activity score (negative = inhibition of binding) read?
A: inconclusive: -23.9%

Q: Which activity score (negative = inhibition of binding) does the source give for `CC(Sc1nnc2ccccn12)C(=O)NCc1ccc2c(c1)OCO2` (configuration not stated) here?
A: inactive: 0.132%

Q: How did the activity score (negative = inhibition of binding) turn out when `CCCCN1C(=O)/C(=C2/Sc3ccc(Cl)cc3N2CC)SC1=S` was run?
A: inconclusive: -10.2%

Q: For `COCCN(CCOC)Cc1c(O)ccc2c1O/C(=C\c1ccco1)C2=O`, which activity score (negative = inhibition of binding) is on record?
A: inconclusive: -76.1% [fluorescent]

Q: With `CC(C)c1cc(C(N)=O)c(NC(=O)c2cccc(COc3ccc(Br)cc3)c2)s1` as the compound, how does the activity score (negative = inhibition of binding) read?
A: inconclusive: -15.4%

Q: With `CCCN1CCc2c(sc(NC(=O)c3ccc(S(=O)(=O)N4CCN(C(=O)OCC)CC4)cc3)c2C(N)=O)C1` as the compound, how does the activity score (negative = inhibition of binding) read?
A: inconclusive: -41% [fluorescent]

Q: How did the activity score (negative = inhibition of binding) turn out when `CCCCN1C(=O)C2Cc3c([nH]c4ccccc34)CN2C1=S` (configuration not stated) was run?
A: active: -27.9%

Q: Which activity score (negative = inhibition of binding) does the source give for `O/C=c1\ccc2cccc3nc(C(F)(F)F)nc1c23` here?
A: inconclusive: -24.2%

Q: With `O=C1/C(=N\S(=O)(=O)c2cccs2)C([n+]2cccc(Cc3ccccc3)c2)=C([O-])c2ccccc21` as the compound, how does the activity score (negative = inhibition of binding) read?
A: inconclusive: -47.8% [fluorescent]

Q: How did the activity score (negative = inhibition of binding) turn out when `Cn1c(=O)c(NCCc2ccccc2)c2c3c(cccc31)C(=O)c1ccccc1-2` was run?
A: inconclusive: -112% [fluorescent]

Q: Which activity score (negative = inhibition of binding) does the source give for `CC(=O)Nc1ccc(OS(=O)(=O)c2ccc(Cl)cc2)cc1` here?
A: inactive: -1.68%

Q: For `CCOc1cc(C(c2c(C)[nH][nH]c2=O)c2c(C)[nH][nH]c2=O)ccc1O`, which activity score (negative = inhibition of binding) is on record?
A: inconclusive: -25.4%

Q: `COC(=O)CCC(=O)OC1(C)C(=O)C2=CN(CCc3ccccn3)C(c3ccc(OC)cc3)=CC2=C(Br)C1=O` (configuration not stated) was tested. Which activity score (negative = inhibition of binding) did it give?
A: inconclusive: -21.9%

Q: How did the activity score (negative = inhibition of binding) turn out when `CCn1c2ccc(OC)cc2c2nc3ccccc3nc21` was run?
A: inconclusive: -85.5% [fluorescent]

Q: How did the activity score (negative = inhibition of binding) turn out when `COc1ccc(N2C(=O)C(Cl)=C(Oc3cccc(OC)c3)C2=O)cc1` was run?
A: inactive: 0.371%

Q: With `COC(=O)Cn1c(C)c(/C=C/c2cc[n+](C)cc2)c2ccccc21` as the compound, how does the activity score (negative = inhibition of binding) read?
A: inconclusive: 73% [fluorescent]

Q: Which activity score (negative = inhibition of binding) does the source give for `N=c1c(S(=O)(=O)c2ccc(Cl)cc2)cc2c(=O)n3ccccc3nc2n1C1CCCC1` here?
A: active: -35.2%

Q: How did the activity score (negative = inhibition of binding) turn out when `CCOc1ccc2noc3c2c1C(=O)c1ccccc1-3` was run?
A: inconclusive: -146% [fluorescent]

Q: How did the activity score (negative = inhibition of binding) turn out when `COc1cc(C(=O)Oc2c(CN3CCOCC3)cc(Cl)c3cccnc23)cc(OC)c1OC` was run?
A: inactive: 2.89%

Q: With `Cc1ccccc1N1CCN(C(=O)CCN2C(=O)c3ccccc3C2=O)CC1` as the compound, how does the activity score (negative = inhibition of binding) read?
A: inactive: 0.774%

Q: With `O=C(O)Cc1ccc(O)c(O)c1` as the compound, how does the activity score (negative = inhibition of binding) read?
A: inconclusive: -18.5%

Q: `Cc1ccc(CCNC(=O)C2CCCN(c3ncnc4c3nc3n4CCCCC3)C2)cc1` (configuration not stated) was tested. Which activity score (negative = inhibition of binding) did it give?
A: inactive: 1.33%

Q: Which activity score (negative = inhibition of binding) does the source give for `COc1cc(/C=C2\SC(=S)N(C(C(=O)O)c3ccccc3)C2=O)ccc1O` (configuration not stated) here?
A: inconclusive: 67.1% [fluorescent]

Q: How did the activity score (negative = inhibition of binding) turn out when `O=S(=O)(O)c1cccc2c(N=Nc3ccc(O)c4ncccc34)cccc12` was run?
A: active: -92.3%

Q: Which activity score (negative = inhibition of binding) does the source give for `CN1C(=O)/C(=C/c2ccc(-c3ccccc3[N+](=O)[O-])o2)SC1=Nc1ccc(Cl)c(C(=O)O)c1` here?
A: inconclusive: -15.8%

Q: How did the activity score (negative = inhibition of binding) turn out when `Cc1cccc(C(=O)Nc2cccc3cccnc23)c1` was run?
A: inactive: -2.6%

Q: With `CCCSc1nnc(NC(=O)Nc2ccccc2)s1` as the compound, how does the activity score (negative = inhibition of binding) read?
A: inconclusive: -13.2%

Q: `Nc1ccc2nc3c(=O)[nH]c(=S)[nH]c3nc2c1` was tested. Which activity score (negative = inhibition of binding) did it give?
A: active: -47.2%

Q: `CC1(C)CC2(CC(c3ccccc3F)c3ccc(O)c(O)c3O2)NC(=S)N1` (configuration not stated) was tested. Which activity score (negative = inhibition of binding) did it give?
A: inconclusive: -20.4%

Q: For `CC1(OC(=O)c2ccc(Cl)nc2)C(=O)C=C2C=C(c3ccc(C#N)cc3)OC=C2C1=O` (configuration not stated), which activity score (negative = inhibition of binding) is on record?
A: inconclusive: -24%

Q: Which activity score (negative = inhibition of binding) does the source give for `Cc1cccn2c(=O)c3cc(C(=O)NC4CCCCC4)c(=N)n(Cc4ccccc4)c3nc12` here?
A: inconclusive: -13.8%

Q: With `COc1ccc(C(=O)Nc2cc(C(C)=O)c(/C=C/N(C)C)oc2=O)cc1` as the compound, how does the activity score (negative = inhibition of binding) read?
A: inconclusive: -21.4%

Q: Which activity score (negative = inhibition of binding) does the source give for `CC(Cc1ccc(O)c(O)c1)C(C)Cc1ccc(O)c(O)c1` (configuration not stated) here?
A: active: -35.9%
